# Reference: paper PMC9911399
# The other results are listed elsewhere or left out.
# Molecular target: T1, RBFOX1 RRM (Homo sapiens) (UniProt Q9NWB1)
# T1 sequence: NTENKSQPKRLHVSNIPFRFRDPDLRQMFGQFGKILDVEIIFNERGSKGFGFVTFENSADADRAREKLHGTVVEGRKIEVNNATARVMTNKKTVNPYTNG
# Assay: EMSA
# Settings: HiTS-Eq, 1 nM pool, 10 min; buffer printed only for the single-RNA assays: 10 mM Tris pH 7.5, 150 mM NaCl, 3.4 mM EDTA, 0.001% NP-40, 30 C
row,Sequence,binding signal (KA relative to UGCAUGU)
1,GGGAGACCGGAAUUCAGAUUGUCCUCCCGGAUUAAAUCCCGUCGUAGCCACCA / CAATCTGAATTCCGGTCTCCC / TGGTGGCTACGACGGGATT,0.0123
2,GGGAGACCGGAAUUCAGAUUGUCCCCCUCUCUUAAAUCCCGUCGUAGCCACCA / CAATCTGAATTCCGGTCTCCC / TGGTGGCTACGACGGGATT,0.0127
3,GGGAGACCGGAAUUCAGAUUGUCCGGUAUCCUUAAAUCCCGUCGUAGCCACCA / CAATCTGAATTCCGGTCTCCC / TGGTGGCTACGACGGGATT,0.0127
4,GGGAGACCGGAAUUCAGAUUGUCCUCCCGACUUAAAUCCCGUCGUAGCCACCA / CAATCTGAATTCCGGTCTCCC / TGGTGGCTACGACGGGATT,0.00732
5,GGGAGACCGGAAUUCAGAUUGUCCCCCCUACUUAAAUCCCGUCGUAGCCACCA / CAATCTGAATTCCGGTCTCCC / TGGTGGCTACGACGGGATT,0.00532
6,GGGAGACCGGAAUUCAGAUUGUCCGGUCCCAUUAAAUCCCGUCGUAGCCACCA / CAATCTGAATTCCGGTCTCCC / TGGTGGCTACGACGGGATT,0.00232
7,GGGAGACCGGAAUUCAGAUUGUCCUCCUCCCUUAAAUCCCGUCGUAGCCACCA / CAATCTGAATTCCGGTCTCCC / TGGTGGCTACGACGGGATT,0.0127
8,GGGAGACCGGAAUUCAGAUUGUCCCCACCCCUUAAAUCCCGUCGUAGCCACCA / CAATCTGAATTCCGGTCTCCC / TGGTGGCTACGACGGGATT,0.00159
9,GGGAGACCGGAAUUCAGAUUGUCCGGAACCCUUAAAUCCCGUCGUAGCCACCA / CAATCTGAATTCCGGTCTCCC / TGGTGGCTACGACGGGATT,0.00605
